The other results are listed elsewhere or left out. The list includes weakly bound sequences.
biological target: T1, MBP-FoxP3dN (UniProt Q99JB6); experiment: PD-seq (MBP pull-down with sequencing); conditions: 20 mM Tris-HCl pH 7.5, 100 mM NaCl, 1.5 mM MgCl2, 0.4 uM protein, 0.1 uM dsDNA library, 30 min, room temperature, amylose pull-down; high values mean tight binding; double strand, one strand shown
T1 sequence: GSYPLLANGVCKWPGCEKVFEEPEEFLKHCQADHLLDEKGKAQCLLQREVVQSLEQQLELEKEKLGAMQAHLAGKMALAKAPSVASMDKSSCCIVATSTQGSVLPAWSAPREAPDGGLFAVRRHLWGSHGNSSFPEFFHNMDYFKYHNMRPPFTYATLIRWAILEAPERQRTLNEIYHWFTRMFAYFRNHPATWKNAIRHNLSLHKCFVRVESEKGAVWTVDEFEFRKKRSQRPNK

| Sequence | binding signal (RPM ratio (pull-down/input)) |
| --- | --- |
| GATGATTGTTCTCCCAGCTGATGAATTGCAGCCTTCGAGTAAACAAATTTTCCTAATCTTTCTGTTCAAGCGCCATCTAC | 2.83 |
| GATGATTGTTCTCCCAGCTGATGAATTTTAATCTTCGAGTAAACAAATTTTCCTAATCTTTCTGTTCAAGCGCCATCTAC | 0.339 |
| GATGATTGTTCTCCCAGCTGATGAATTTGCTTTCTCGAGTAAACAAATTTTCCTAATCTTTCTGTTCAAGCGCCATCTAC | 5.95 |
| GATGATTGTTCTCCCAGCTGATGAATTGCGCAGGTCGAGTAAACAAATTTTCCTAATCTTTCTGTTCAAGCGCCATCTAC | 1.24 |
| GATGATTGTTCTCCCAGCTGATGAATTCGTCGGTTCGAGTAAACAAATTTTCCTAATCTTTCTGTTCAAGCGCCATCTAC | 0.551 |
| GATGATTGTTCTCCCAGCTGATGAATTTGTGAGCTCGAGTAAACAAATTTTCCTAATCTTTCTGTTCAAGCGCCATCTAC | 3.75 |
| GATGATTGTTCTCCCAGCTGATGAATTTTGGCCCTCGAGTAAACAAATTTTCCTAATCTTTCTGTTCAAGCGCCATCTAC | 0.473 |
| GATGATTGTTCTCCCAGCTGATGAATTTCCGCAATCGAGTAAACAAATTTTCCTAATCTTTCTGTTCAAGCGCCATCTAC | 3.14 |
| GATGATTGTTCTCCCAGCTGATGAATTACATCCCTCGAGTAAACAAATTTTCCTAATCTTTCTGTTCAAGCGCCATCTAC | 0.516 |
| GATGATTGTTCTCCCAGCTGATGAATTTCACCGATCGAGTAAACAAATTTTCCTAATCTTTCTGTTCAAGCGCCATCTAC | 0.33 |
| GATGATTGTTCTCCCAGCTGATGAATTGCGACTTTCGAGTAAACAAATTTTCCTAATCTTTCTGTTCAAGCGCCATCTAC | 2.77 |
| GATGATTGTTCTCCCAGCTGATGAATTTTCGGGTTCGAGTAAACAAATTTTCCTAATCTTTCTGTTCAAGCGCCATCTAC | 0.293 |
| GATGATTGTTCTCCCAGCTGATGAATTGGAGCCGTCGAGTAAACAAATTTTCCTAATCTTTCTGTTCAAGCGCCATCTAC | 0.341 |
| GATGATTGTTCTCCCAGCTGATGAATTCCAGAATTCGAGTAAACAAATTTTCCTAATCTTTCTGTTCAAGCGCCATCTAC | 0.411 |
| GATGATTGTTCTCCCAGCTGATGAATTAATTCTTTCGAGTAAACAAATTTTCCTAATCTTTCTGTTCAAGCGCCATCTAC | 0.267 |
| GATGATTGTTCTCCCAGCTGATGAATTCGTCACTTCGAGTAAACAAATTTTCCTAATCTTTCTGTTCAAGCGCCATCTAC | 1.95 |
| GATGATTGTTCTCCCAGCTGATGAATTCGGCACGTCGAGTAAACAAATTTTCCTAATCTTTCTGTTCAAGCGCCATCTAC | 1.12 |
| GATGATTGTTCTCCCAGCTGATGAATTATTCAGTTCGAGTAAACAAATTTTCCTAATCTTTCTGTTCAAGCGCCATCTAC | 0.352 |
| GATGATTGTTCTCCCAGCTGATGAATTGAGTTCATCGAGTAAACAAATTTTCCTAATCTTTCTGTTCAAGCGCCATCTAC | 0.506 |
| GATGATTGTTCTCCCAGCTGATGAATTGTTTAGGTCGAGTAAACAAATTTTCCTAATCTTTCTGTTCAAGCGCCATCTAC | 4.04 |

| Sequence | binding signal (RPM ratio (pull-down/input)) |
| --- | --- |
| GATGATTGTTCTCCCAGCTGATGAATTGTAGTGTTCGAGTAAACAAATTTTCCTAATCTTTCTGTTCAAGCGCCATCTAC | 1.85 |
| GATGATTGTTCTCCCAGCTGATGAATTATACTAGTCGAGTAAACAAATTTTCCTAATCTTTCTGTTCAAGCGCCATCTAC | 0.457 |
| GATGATTGTTCTCCCAGCTGATGAATTCGTTCTATCGAGTAAACAAATTTTCCTAATCTTTCTGTTCAAGCGCCATCTAC | 0.392 |
| GATGATTGTTCTCCCAGCTGATGAATTGCCGCACTCGAGTAAACAAATTTTCCTAATCTTTCTGTTCAAGCGCCATCTAC | 0.847 |
| GATGATTGTTCTCCCAGCTGATGAATTATACTTATCGAGTAAACAAATTTTCCTAATCTTTCTGTTCAAGCGCCATCTAC | 1.09 |
| GATGATTGTTCTCCCAGCTGATGAATTGCCGTGTTCGAGTAAACAAATTTTCCTAATCTTTCTGTTCAAGCGCCATCTAC | 0.831 |
| GATGATTGTTCTCCCAGCTGATGAATTCCGTACTTCGAGTAAACAAATTTTCCTAATCTTTCTGTTCAAGCGCCATCTAC | 0.536 |
| GATGATTGTTCTCCCAGCTGATGAATTCGCGCCTTCGAGTAAACAAATTTTCCTAATCTTTCTGTTCAAGCGCCATCTAC | 3.3 |
| GATGATTGTTCTCCCAGCTGATGAATTATAGGCTTCGAGTAAACAAATTTTCCTAATCTTTCTGTTCAAGCGCCATCTAC | 0.414 |
| GATGATTGTTCTCCCAGCTGATGAATTGACTGCGTCGAGTAAACAAATTTTCCTAATCTTTCTGTTCAAGCGCCATCTAC | 0.522 |
| GATGATTGTTCTCCCAGCTGATGAATTGGGGAAATCGAGTAAACAAATTTTCCTAATCTTTCTGTTCAAGCGCCATCTAC | 0.351 |
| GATGATTGTTCTCCCAGCTGATGAATTCATCGTGTCGAGTAAACAAATTTTCCTAATCTTTCTGTTCAAGCGCCATCTAC | 1.04 |
| GATGATTGTTCTCCCAGCTGATGAATTAAACCCGTCGAGTAAACAAATTTTCCTAATCTTTCTGTTCAAGCGCCATCTAC | 0.238 |
| GATGATTGTTCTCCCAGCTGATGAATTGGAAAGCTCGAGTAAACAAATTTTCCTAATCTTTCTGTTCAAGCGCCATCTAC | 0.211 |
| GATGATTGTTCTCCCAGCTGATGAATTGCTTACGTCGAGTAAACAAATTTTCCTAATCTTTCTGTTCAAGCGCCATCTAC | 2.34 |
| GATGATTGTTCTCCCAGCTGATGAATTGTAGGGTTCGAGTAAACAAATTTTCCTAATCTTTCTGTTCAAGCGCCATCTAC | 0.662 |
| GATGATTGTTCTCCCAGCTGATGAATTGAACTCATCGAGTAAACAAATTTTCCTAATCTTTCTGTTCAAGCGCCATCTAC | 0.366 |
| GATGATTGTTCTCCCAGCTGATGAATTAGTACGATCGAGTAAACAAATTTTCCTAATCTTTCTGTTCAAGCGCCATCTAC | 0.4 |
| GATGATTGTTCTCCCAGCTGATGAATTCTGGCCTTCGAGTAAACAAATTTTCCTAATCTTTCTGTTCAAGCGCCATCTAC | 1.63 |
| GATGATTGTTCTCCCAGCTGATGAATTGCGCGCATCGAGTAAACAAATTTTCCTAATCTTTCTGTTCAAGCGCCATCTAC | 2.39 |

— publication PMC12820563
